Data: PubChem BioAssay AID652104 (National Center for Advancing Translational Sciences (NCATS), 2013)
About 7,200 (1.8%) of roughly 410,000 compounds were called active. The inconclusive results got no clear call from the source; some entries with a clear call stand among them for comparison. Calls follow the shape of the dose curve; as a rule, active = well fitted activation curve with a large enough effect; inconclusive = small, poorly fitted or top-dose-only effect, or another doubt; inactive = no such curve, though single readings can be large or run the other way. Potencies of inconclusive entries are left out as doubtful fits.

Assay: qHTS of TDP-43 Inhibitors; also: nearly all actives have a fitted effect of over 50% in size; as to growth rescue (activation): % of control where 0% means no effect
Settings: TDP-43 expressing yeast growth rescue, BacTiter-Glo, 24 h; growth rescue (activation): at 46.1 µM (top of the series) unless noted
Procedure, shortened: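 Cell-based yeast growth screen: TDP-43 expression induced in galactose, inoculum OD600=0.02 after raffinose pregrowth to mid-log. Read-out BacTiter-Glo luminescence at 24 hr, 30 deg C; inhibition of toxicity seen as signal increase.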
Potency is read from the fitted curve at half-maximal effect; tags tell the direction and shape of the fitted curve.

SMILES | Potency | growth rescue (activation)
COc1ccc(-c2ccccc2)cc1NC(=O)c1cccs1 | inconclusive [activator, single point] | –
O=C(c1ccco1)c1cn(CCOc2ccc(F)cc2)c2ccccc12 | active: 17.8 µM | –
CC1CCCN(C(=O)c2cc3c(Cl)nc4ccccc4c3s2)C1 (stereo not given) | active: 20 µM | –
O=C(COC(=O)c1ccc2ccccc2n1)Nc1ccccc1F | inconclusive [activator, partial curve] | –
Fc1ccc(CN2CCCN(Cc3nc(-c4ccc5c(c4)OCO5)no3)CC2)cc1 | inconclusive [activator, partial curve] | –
CSc1nncc(-c2ccccc2)n1 | inconclusive [activator, partial curve] | –
CC1=C(C#N)C(c2cn(-c3ccccc3)nc2-c2cccs2)C(C#N)=C(C)N1 | – | inactive: 1.98%
Cc1ccc2c(c1)N=C(c1ccccc1)CC(C(Cl)Cl)=N2 | inconclusive [activator, single point] | –
O=C(N[C@H]1C=C[C@H](CC(=O)N2CCCCC2)O[C@@H]1CO)c1cccc(F)c1 | inconclusive [activator, partial curve, poor fit] | –
CC(C)OC(=O)c1ccc(COC(=O)c2cccc(-c3nnc(-c4ccccc4)o3)c2)cc1 | – | inactive: -7.7%
COC(=O)[C@]12CCCCC=C1N(CCc1ccc(OC)c(OC)c1)C(=O)[C@H](CC(=O)NCc1ccccc1)C2 | – | inactive: 0%
CSc1ccccc1NC(=O)COC(=O)c1ccc(-n2nc(C)cc2C)cc1 | inconclusive [activator, single point] | –
O=C(CCl)N1c2ccccc2Sc2ccc3ccccc3c21 | active: 5.01 µM | –
COC(=O)C1=NN(C(=O)c2ccccc2)C(O)(c2ccc([N+](=O)[O-])cc2)C1 (stereo not given) | – | inactive: -17.3%
Cc1c(Cl)cccc1N/C(=N/S(=O)(=O)c1cccs1)c1ccccc1 | inconclusive [activator, partial curve] | –
CN(C(=O)CSc1cn(CC(=O)N2CCOCC2)c2ccccc12)c1ccccc1 | inconclusive [activator, single point] | –
Cc1ccc(C(C(=O)NCc2ccco2)N(C(=O)Cc2cccs2)c2cccnc2)cc1 (stereo not given) | inconclusive [activator, partial curve, poor fit] | –
CCCCN(CC)CCNC(=O)Cn1cc2c(n1)-c1c(oc(C(=O)N3CCCC3)c1C)CC2 | inconclusive [activator, single point] | –
Cc1ccc2c(c1)/C(=N/OS(=O)(=O)c1ccccc1)CCS2 | – | inactive: 4.64%
Cn1nccc1C(=O)Nc1ccc2c(c1)OCO2 | – | inactive: 17.2%
Cc1ccc(NC(=S)N(C)N)cc1Cl | inconclusive [activator, single point] | –
CCCC(C)(C)C(=O)N1CCC1(C)C(=O)Nc1cccc(OC)c1 (stereo not given) | inconclusive [activator, partial curve] | –
O=C(CCS(=O)(=O)c1nc(-c2ccc3c(c2)OCO3)cc(C(F)(F)F)n1)Nc1ccccc1F | active: 22.4 µM | –
O=C(Nc1ccccc1)N(Cc1cccs1)C1CCCC1 | inconclusive [activator, single point] | –

SMILES | Potency | growth rescue (activation)
COCCNC(=O)c1cc2nc3c(c(C(F)(F)F)n2n1)CCc1ccccc1-3 | inconclusive [activator, partial curve] | –
CC(SCc1ccccc1)C(=O)N/N=C/c1cc2c(cc1Br)OCO2 (stereo not given) | inconclusive [activator, single point] | –
Nc1c(-c2ccc(F)cc2)nc2ncccn12 | inconclusive [activator, partial curve, poor fit] | –
CCN(CC)C(=O)c1sc2c(c1C)c(=O)n(Cc1ccccc1)c(=O)n2Cc1ccc(Cl)cc1 | inconclusive [activator, partial curve] | –
COc1ccccc1N=NNc1ccccc1OC | inconclusive [activator, partial curve] | –
CC(=O)c1cccc(NC(=O)c2c(N3CCCC3=O)c3cc(F)ccc3n2C)c1 | inconclusive [activator, partial curve] | –
CCOC(=O)C(=CNc1ccc(Oc2cncc(Cl)c2)nc1)C(=O)OCC | inconclusive [activator, single point] | –
Cc1c2ccncc2cc2c1[nH]c1ccccc12 | – | inactive: -1.21%
Clc1ccc(-n2nnnc2-c2ccccc2)cc1Cl | inconclusive [activator, single point] | –
CCCc1nc2ccccc2n2c(-c3ccc(C)cc3)c3c(=O)n(C)c(=O)n(C)c3c12 | inconclusive [activator, partial curve, poor fit] | –
Cc1ccccc1OCC(O)CN1CCC(C)CC1 (stereo not given) | – | inactive: -26.9%
CCOc1ccc(-c2c(C(=O)N/N=C/c3ccc(OC(C)C)cc3)nnn2-c2nonc2N)cc1 | inconclusive [activator, full curve, poor fit] | –
Cc1cccc(N2CCN(C(=O)c3cnn(-c4cccc(Cl)c4C)c3C3CCNCC3)CC2)c1C | – | inactive: 12.1%
O=C(c1c[nH]c(C(=O)C(Cl)(Cl)Cl)c1)c1ccccc1Br | – | inconclusive: -83.2% [activator]
CN(C(=O)C1=CC(c2ccc3c(c2)OCO3)=NS(=O)(=O)N1C)c1ccccc1 | – | inactive: 0.589%
CCC/C=C1/CCCOC(C(=O)NCc2ccccn2)(C(F)(F)F)C1 (stereo not given) | inconclusive [activator, single point] | –
Fc1c(F)c(F)c(N/N=C/c2c[nH]c3ccccc23)c(F)c1F | inconclusive [activator, partial curve] | –
COc1ccc(C/C(N)=N/OC(=O)Cc2ccccc2)cc1 | active: 15.8 µM | –
Cc1ccc(C)c(NC(=S)N/N=C2\CCc3ccccc32)c1 | inconclusive [activator, partial curve] | –
Cc1ccc(CNC(=O)C2CC2c2ccccc2)cc1 (stereo not given) | inconclusive [activator, full curve, poor fit] | –
O=c1oc2ccc(Br)cc2cc1-c1csc(-c2ccccc2)n1 | inconclusive [activator, single point] | –
COc1ccc(NC(=O)C2Cc3c(-c4cccc(C(C)=O)c4)ccnc3O2)cc1 (stereo not given) | active: 22.4 µM | –
CCn1cc(/C=C(\NC(=O)c2ccc(C)cc2)C(=O)NCCCN2CCOCC2)c2ccccc21 | – | inactive: -9.83%
COC(=O)c1ccc(NC(=O)c2cc(=O)c3ccc(C)cc3o2)cc1 | inconclusive [activator, full curve] | –

SMILES | Potency | growth rescue (activation)
COc1cccc(C(=O)Nc2cccc(-c3ccc(N4CCOCC4)nn3)c2)c1OC | inconclusive [activator, single point] | –
CCCC[C@@H]1Cc2[nH][nH]c(=O)c2[C@H](c2cccc3ccccc23)O1 | active: 11.2 µM | –
COc1ccccc1-c1ccc(SCc2ccc(C)cc2)nn1 | inconclusive [activator, single point] | –
CCc1cccc(NS(=O)(=O)c2c(C)nc3sc(CC)nn3c2=O)c1 | inconclusive [activator, partial curve] | –
Cc1cccc(C)c1NC(=O)C1(C)CN(S(C)(=O)=O)CC(=O)N1CCCn1ccnc1 (stereo not given) | – | inactive: -28.2%
Cc1nc(S(=O)(=O)NC2CCCCC2)c(C#N)c(C)c1Cl | inconclusive [activator, partial curve] | –
CC[C@H]1C(c2ccc(F)cc2)=NN(c2ccccc2)[C@@H]1CO | active: 11.2 µM | –
COc1ccc(CC(=O)NCc2nc3cccnc3n2Cc2ccc(C)cc2)cc1OC | inconclusive [activator, partial curve] | –
O=C1C=C(c2ccc3ncccc3c2)C[C@@H](c2ccc(F)cc2)C1 | inconclusive [activator, single point] | –
Oc1ccc(Br)cc1/C=N/NC(=S)NCCc1ccccc1 | – | inactive: 14.5%
COc1cccc(C(=O)CSc2nc3cccnc3n2C)c1 | inconclusive [activator, partial curve] | –
COCCN(C(=O)c1ccco1)c1nc(-c2ccccc2)cs1 | inconclusive [activator, partial curve] | –
CCOC(=O)c1noc2ncnc(N3CCC(C)CC3)c12 | inconclusive [activator, partial curve, poor fit] | –
Cc1nc2c(c(C)nn2-c2ccccc2)c(C)c1CCC(=O)NCCc1ccccc1 | inconclusive [activator, full curve, poor fit] | –
Cn1nnc2c(NCc3ccccc3Cl)ncnc21 | inconclusive [activator, partial curve] | –
COC(=O)c1ccccc1NC(=O)C1CCCO1 (stereo not given) | inconclusive [activator, partial curve, poor fit] | –
CCCC(=O)Nc1nnc2n1CCS2 | inconclusive [activator, partial curve, poor fit] | –
Cc1cc(C)c(NC(=S)NC(=O)c2ccccc2)cc1C | inconclusive [activator, partial curve] | –
O=C(COc1ccc(Cl)cc1)NCCSc1ccccc1 | active: 17.8 µM | –
Cc1ccc(SCC2=NNC(=O)C2)cc1 | inconclusive [activator, partial curve] | –
S=C(NCc1ccccn1)Nc1ccc(Cl)c(Cl)c1 | inconclusive [activator, partial curve] | –
Cc1cccc(N2CCN(C(=O)C(C)C)CC2)c1C | inconclusive [activator, single point] | –
